Results: PubChem BioAssay AID504466 (National Center for Advancing Translational Sciences (NCATS), 2011)
Hit rate of the full screen: of about 330,000 compounds, about 4,200 (1.3%) were called active. Inconclusive results, whose numbers are uncertain, are shown with a selection of clear calls. Calls come from the whole dose curve; as a rule, active = well fitted activation curve with a large enough effect; inconclusive = small, poorly fitted or top-dose-only effect; inactive = no such curve, though single readings can be large or run the other way. A potency beside an inconclusive call is a rough fit, not a confirmed value.
Potency is the fitted concentration of half-maximal effect; tags give direction and shape of the fitted curve.

Assay: qHTS screen for small molecules that induce genotoxicity in human embryonic kidney (HEK293T) cells expressing luciferase-tagged ELG1; note: nearly all actives have a fitted effect of over 60% in size; for activity change, positive = activation: % of control where 0% means no effect
Details: HEK293T ELG1-luciferase reporter, luminescence, 16 h; series mostly up to 46 µM; activity change, positive = activation: at the top concentration
How it was run: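 16 hr compound incubation (37 °C, 5% CO2) of HEK293T cells carrying luciferase-tagged ELG1; luciferase then measured by ONE-Glo luminescence after 30 min at RT.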
In the case of `Cn1c(SCc2ccccc2Cl)nnc1-c1cnccn1`, the Potency is reported as active: 11.2 µM.
With `CN(C)/C=N/c1ncn(-c2ncc(C(F)(F)F)cc2Cl)n1` the Potency was inconclusive: 0.0183 µM [activator, full curve, poor fit].
With `CC(=O)NC12CC3CC(C1)CC(C(=O)N1CCN(S(=O)(=O)c4ccc(C(C)C)cc4)CC1)(C3)C2` the “activity change, positive = activation” value was inactive: 0.633%.
With `COCc1cc(C)nc(NC2CCCCC2)c1C#N` the Potency was inconclusive: 18.4 µM [activator, partial curve, poor fit].
For `O=C(OCn1ncc(Br)c(Br)c1=O)c1c(F)cccc1F`, the Potency was inconclusive: 5.8 µM [activator, partial curve, poor fit].
For `Cc1ccc2nc(NNC(=O)c3ccc4c(c3)OCCO4)sc2c1`, the “activity change, positive = activation” value was inactive: 0.571%.
With `CCOC(=O)c1cn[nH]c1NC(=S)Nc1ccccc1` the Potency was inconclusive: 1.3 µM [activator, full curve, poor fit].
With `O=C1N/C(=C/c2cccn2-c2ccccc2)C(=O)N1c1cccc(Cl)c1` the Potency was inconclusive: 29.1 µM [activator, partial curve, poor fit].
With `Cc1ccc(/C=C/c2nnc(-c3ccccc3)o2)cc1` the Potency was inconclusive: 7.31 µM [activator, partial curve].
In the case of `CC1CCN(C(=O)CNC(=O)c2cccc(OC(F)F)c2)CC1`, the Potency is reported as inconclusive: 25.9 µM [activator, partial curve, poor fit].
In the case of `O=C1C(=C2SCCCS2)CC/C1=C\c1ccc(F)cc1`, the Potency is reported as inconclusive: 0.058 µM [activator, full curve, poor fit].
For `Cc1ccc(/C=N/NC(=S)N2CCOCC2)cc1`, the Potency was inconclusive: 23.1 µM [activator, partial curve, poor fit].
With `Cc1cc(N)c(-n2cc3c(=O)n(C)c(=O)n(C)c3c2)cc1C` the Potency was inconclusive: 14.6 µM [activator, partial curve].
In the case of `COc1ccc(CCNC(=O)C(=O)NCC2OCCN2S(=O)(=O)c2ccc3c(c2)OCCO3)cc1OC` (configuration not stated), the “activity change, positive = activation” value is reported as inactive: -9.84%.
In the case of `[O-]/[N+](=C/c1ccc(F)cc1)c1ccccc1`, the “activity change, positive = activation” value is reported as inactive: 3.8%.
In the case of `O=c1cc(N2CCN(c3cccc(Cl)c3)CC2)[nH]c(=O)n1C1CCCCC1`, the Potency is reported as inconclusive: 2.91 µM [activator, full curve].
For `O=C(CSc1ccc(-c2ccccn2)nn1)Nc1ccccc1`, the Potency was inconclusive: 20.6 µM [activator, single point].
With `O=C(O)c1cc(Cl)c(Cl)cc1C(=O)Nc1cccc2cccnc12` the “activity change, positive = activation” value was inactive: -0.0024%.
In the case of `O=C(N/N=C/c1c(O)n(Cc2ccccc2)c(=O)c2ccccc12)c1cccnc1`, the “activity change, positive = activation” value is reported as inactive: -4.16%.
For `CCn1cc(C(=O)NCCCN(C)c2ccccc2)c(=O)c2cc(S(=O)(=O)N(C)C)ccc21`, the “activity change, positive = activation” value was inactive: -12.9%.
In the case of `O=C(CSc1nnc(-c2ccncc2)n1-c1ccc(F)cc1)NNC(=O)c1cccc(O)c1`, the “activity change, positive = activation” value is reported as inactive: -2.36%.
For `CC1CCN(Cc2nc(-c3ccccc3)no2)CC1`, the Potency was active: 5.17 µM.
With `CC(C)(C)c1ccc(CNc2ccc([N+](=O)[O-])cn2)cc1` the Potency was inconclusive: 20.6 µM [activator, single point].
With `CCCCC(=O)Nc1nc2ccc(C(=O)OC)cc2s1` the Potency was inconclusive: 18.3 µM [activator, single point].
For `COc1ccc2c(=O)c3c(=O)n(Cc4ccco4)c(-c4ccco4)nc3oc2c1`, the “activity change, positive = activation” value was inactive: 5.19%.
In the case of `CCOc1ccc(/C=C2\SC(=S)N(CC(=O)Nc3ccccn3)C2=O)cc1`, the “activity change, positive = activation” value is reported as inactive: 10.4%.
With `COc1ccc(C(=O)N2CCN(c3ccc(NC(=O)Cc4ccccc4)cc3)CC2)cc1` the “activity change, positive = activation” value was inactive: -6.65%.
In the case of `Cc1c(C(=O)NCc2cccnc2)sc2nc(-c3ccc(F)cc3)cn12`, the Potency is reported as inconclusive: 4.11 µM [activator, partial curve].
With `CCCC(C(=O)NC(C)(C)C)N(C(=O)c1snc(C(N)=O)c1N)c1ccc2c(c1)OCCO2` (configuration not stated) the Potency was inconclusive: 29.1 µM [activator, single point].
For `O=C(NNc1nc2ccccc2s1)Nc1ccccc1`, the Potency was inconclusive: 3.66 µM [activator, partial curve, poor fit].
For `CCn1c(=O)cc(SCC(=O)NCC2CCCO2)c2ccccc21` (configuration not stated), the Potency was inconclusive: 23.1 µM [activator, partial curve, poor fit].
With `Cc1ccc2c(c1)c1cccc3c1n2CCN3CCC(N)=O` the Potency was active: 5.01 µM.
For `CCOC(=O)c1sc(=NC(=O)CCSc2ccccc2)n(C)c1C`, the Potency was inconclusive: 11.6 µM [activator, partial curve, poor fit].
With `O=C(NCC(=O)N1CCCC1)c1cccs1` the Potency was inconclusive: 23.1 µM [activator, single point].
In the case of `COc1ccc(/C=N/NC(=O)c2cccnc2)cc1`, the “activity change, positive = activation” value is reported as inactive: 5.94%.
In the case of `Clc1ccc(OCc2nnc(-c3ccccc3Br)o2)c(Cl)c1`, the Potency is reported as inconclusive: 11.6 µM [activator, partial curve].
With `Cc1ccc2[nH]c(CNC(=O)c3ccccc3F)cc2c1` the Potency was inconclusive: 20.6 µM [activator, partial curve, poor fit].
